According to the RNAGym collection of RNA variant scans (doi:10.1093/nar/gkz1192):
Read counts are not given, so values of variants with three or more changes are uncertain.

B1: CPEB3 Ribozyme (parent)
chain: UAACAGGGGGCCACAGCAGAAGCGUUCACGUCGCAGCCCCUGUCAGAUUCUGGUGAAUCUGCGAAUUCUGCUGUAUAUCUC

Variants of: B1
Assay: self-cleavage, relative activity (ratio to wild type); higher = more cleavage; in vitro, sequencing
Procedure, shortened: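 Relative activity was defined as the cleaved/total read fraction for a variant divided by the same fraction for the unmutated ribozyme. CPEB3 self-cleaving ribozyme libraries were made by rounds of error-prone PCR, barcoded, and transcribed in vitro with T7 RNA polymerase for 5 hours at 37°C, and cleavage ran through transcription plus a 15 min DNase I step before EDTA. Illumina sequencing of template-switched reverse transcripts gave the reads, and DNA sequencing mapped the barcodes. Averages come from three batches, using variants with at least 5 reads.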

**Q.** With G24C A35U U41C A77G as the variant, how does the self-cleavage read?
**A.** The self-cleavage was 0.25.

**Q.** Which self-cleavage does the source give for G24C A65G U69C here?
**A.** The self-cleavage was 0.2.

**Q.** With G24C C37U U67C as the variant, how does the self-cleavage read?
**A.** The self-cleavage was 0.13.

**Q.** Which self-cleavage does the source give for G24C C40A A75G U78C here?
**A.** The self-cleavage was 0.07.

**Q.** With G24C G33A A35G as the variant, how does the self-cleavage read?
**A.** Its self-cleavage is 0.16.

**Q.** Which self-cleavage does the source give for G24C G36U U51C U80C here?
**A.** Its self-cleavage is 0.2.

**Q.** With G24C U26A A35G U41C U72C as the variant, how does the self-cleavage read?
**A.** The self-cleavage was 0.13.

**Q.** For G24C U26A U51A U72C, which self-cleavage is on record?
**A.** Its self-cleavage is 0.14.

**Q.** With G24C U26C A28G A64G U72A C79U as the variant, how does the self-cleavage read?
**A.** Its self-cleavage is 0.05.

**Q.** For G24C U26C A35G U49C U76C, which self-cleavage is on record?
**A.** The self-cleavage was 0.07.

**Q.** For G24C U26C A64G U72A C79U, which self-cleavage is on record?
**A.** Its self-cleavage is 0.15.

**Q.** Which self-cleavage does the source give for G24C U26C U60A U80A here?
**A.** Its self-cleavage is 0.11.

**Q.** For G24C U26C U72C, which self-cleavage is on record?
**A.** Its self-cleavage is 0.29.

**Q.** For G24C U41C G42A G55C A56G U60C G73A, which self-cleavage is on record?
**A.** Its self-cleavage is 0.23.

**Q.** For G24C U43A U72A A75G, which self-cleavage is on record?
**A.** Its self-cleavage is 0.21.

**Q.** With G24C U43C G55A as the variant, how does the self-cleavage read?
**A.** Its self-cleavage is 0.17.

**Q.** Which self-cleavage does the source give for G24C U60A G63A here?
**A.** Its self-cleavage is 0.11.

**Q.** Which self-cleavage does the source give for G24C U60G U66A here?
**A.** The self-cleavage was 0.47.

**Q.** With G24U A35U G46A U48C C79A as the variant, how does the self-cleavage read?
**A.** The self-cleavage was 0.16.

**Q.** Which self-cleavage does the source give for G24U A45G G53A U69C U80A here?
**A.** Its self-cleavage is 0.06.

**Q.** For G24U A45U U58C U60C U66C, which self-cleavage is on record?
**A.** Its self-cleavage is 0.1.

**Q.** For G24U C27G U72C, which self-cleavage is on record?
**A.** Its self-cleavage is 0.09.

**Q.** For G24U C29A U80G, which self-cleavage is on record?
**A.** The self-cleavage was 0.17.

**Q.** For G24U C40A U49C, which self-cleavage is on record?
**A.** Its self-cleavage is 0.16.

**Q.** With G24U G52C U78C as the variant, how does the self-cleavage read?
**A.** Its self-cleavage is 0.21.

**Q.** For G24U U25C U43C G53U U78A, which self-cleavage is on record?
**A.** The self-cleavage was 0.07.

**Q.** With G24U U31C U54C as the variant, how does the self-cleavage read?
**A.** Its self-cleavage is 0.11.

**Q.** Which self-cleavage does the source give for G24U U41C A56U A75U here?
**A.** The self-cleavage was 0.07.

**Q.** Which self-cleavage does the source give for G24U U49C U54C A77U C81A here?
**A.** Its self-cleavage is 0.05.

**Q.** Which self-cleavage does the source give for U25A A28G A45U U74C U80C here?
**A.** Its self-cleavage is 0.1.

**Q.** For U25A A28G U41C, which self-cleavage is on record?
**A.** Its self-cleavage is 0.09.

**Q.** For U25A A28G U43C, which self-cleavage is on record?
**A.** Its self-cleavage is 0.45.

**Q.** For U25A A28G U49C C71A, which self-cleavage is on record?
**A.** The self-cleavage was 0.09.

**Q.** With U25A A28U U76C as the variant, how does the self-cleavage read?
**A.** Its self-cleavage is 0.41.

**Q.** Which self-cleavage does the source give for U25A A35C G63A here?
**A.** Its self-cleavage is 0.13.

**Q.** Which self-cleavage does the source give for U25A A35G A45G U48C U66A U72C here?
**A.** The self-cleavage was 0.09.

**Q.** With U25A A35G A45G U67A as the variant, how does the self-cleavage read?
**A.** Its self-cleavage is 0.22.

**Q.** Which self-cleavage does the source give for U25A A35G A75U U76A here?
**A.** Its self-cleavage is 0.17.

**Q.** For U25A A35G A77U U80A, which self-cleavage is on record?
**A.** The self-cleavage was 0.28.

**Q.** Which self-cleavage does the source give for U25A A35G U72C here?
**A.** The self-cleavage was 0.16.

**Q.** Which self-cleavage does the source give for U25A A35U U67A here?
**A.** Its self-cleavage is 0.12.

**Q.** Which self-cleavage does the source give for U25A A45G U49A U51A here?
**A.** The self-cleavage was 0.22.

**Q.** Which self-cleavage does the source give for U25A A47G A75U here?
**A.** The self-cleavage was 0.3.

**Q.** For U25A A47U U78A, which self-cleavage is on record?
**A.** Its self-cleavage is 0.19.

**Q.** With U25A A56G U67C U72C as the variant, how does the self-cleavage read?
**A.** The self-cleavage was 0.18.

**Q.** For U25A A57G C79U, which self-cleavage is on record?
**A.** Its self-cleavage is 0.37.

**Q.** Which self-cleavage does the source give for U25A A57G U60A U69A here?
**A.** Its self-cleavage is 0.12.

**Q.** For U25A A64G A65G, which self-cleavage is on record?
**A.** The self-cleavage was 0.21.

**Q.** With U25A A64G A65G C68U as the variant, how does the self-cleavage read?
**A.** The self-cleavage was 0.12.

**Q.** With U25A A64U U74A as the variant, how does the self-cleavage read?
**A.** Its self-cleavage is 0.2.

**Q.** For U25A A65U C68A U72A, which self-cleavage is on record?
**A.** The self-cleavage was 0.

**Q.** Which self-cleavage does the source give for U25A C27U U72C here?
**A.** Its self-cleavage is 0.27.

**Q.** For U25A C32A U48C U60A G73C, which self-cleavage is on record?
**A.** The self-cleavage was 0.21.

**Q.** Which self-cleavage does the source give for U25A C34A U41A here?
**A.** Its self-cleavage is 0.38.

**Q.** With U25A C40U U48C A75U U80C as the variant, how does the self-cleavage read?
**A.** Its self-cleavage is 0.29.

**Q.** Which self-cleavage does the source give for U25A C62G U67C U69A here?
**A.** The self-cleavage was 0.35.

**Q.** For U25A C62U U72A, which self-cleavage is on record?
**A.** The self-cleavage was 0.09.

**Q.** For U25A G30A U60G A64U U78C U80C, which self-cleavage is on record?
**A.** The self-cleavage was 0.05.

**Q.** For U25A G30A U78A, which self-cleavage is on record?
**A.** Its self-cleavage is 0.18.

**Q.** Which self-cleavage does the source give for U25A G30C U41G U51C U78C here?
**A.** The self-cleavage was 0.06.

**Q.** With U25A G30C U76C as the variant, how does the self-cleavage read?
**A.** The self-cleavage was 0.12.

**Q.** Which self-cleavage does the source give for U25A G36U U69A A75U here?
**A.** The self-cleavage was 0.15.

**Q.** For U25A G42U A45C, which self-cleavage is on record?
**A.** Its self-cleavage is 0.16.

**Q.** For U25A G70A U80A, which self-cleavage is on record?
**A.** Its self-cleavage is 0.23.

**Q.** Which self-cleavage does the source give for U25A U26A G33C U43A U48A here?
**A.** Its self-cleavage is 0.06.

**Q.** Which self-cleavage does the source give for U25A U26A U67C here?
**A.** The self-cleavage was 0.21.

**Q.** Which self-cleavage does the source give for U25A U26C A28G A35U here?
**A.** The self-cleavage was 0.21.

**Q.** For U25A U26C A28U U41A, which self-cleavage is on record?
**A.** Its self-cleavage is 0.62.

**Q.** Which self-cleavage does the source give for U25A U26C U31C U41C U43C A56U here?
**A.** The self-cleavage was 0.07.

**Q.** With U25A U26C U31C U43A as the variant, how does the self-cleavage read?
**A.** Its self-cleavage is 0.13.

**Q.** With U25A U26C U41A U54A U58C U67C A77U as the variant, how does the self-cleavage read?
**A.** Its self-cleavage is 0.08.

**Q.** With U25A U26C U41C as the variant, how does the self-cleavage read?
**A.** Its self-cleavage is 0.23.

**Q.** With U25A U26C U49C C59U A65G U66C U72C as the variant, how does the self-cleavage read?
**A.** Its self-cleavage is 0.18.

**Q.** For U25A U26C U67A, which self-cleavage is on record?
**A.** Its self-cleavage is 0.13.

**Q.** Which self-cleavage does the source give for U25A U26G U41A U49C A57G U80C here?
**A.** The self-cleavage was 0.14.

**Q.** With U25A U31A A35G U43C as the variant, how does the self-cleavage read?
**A.** The self-cleavage was 0.11.

**Q.** Which self-cleavage does the source give for U25A U31A U60C here?
**A.** The self-cleavage was 0.06.

**Q.** For U25A U31C U43C A57G U69A A77U, which self-cleavage is on record?
**A.** Its self-cleavage is 0.04.

**Q.** For U25A U31C U49C, which self-cleavage is on record?
**A.** Its self-cleavage is 0.15.

**Q.** For U25A U41A A47G U49C U54A A77G, which self-cleavage is on record?
**A.** The self-cleavage was 0.31.

**Q.** Which self-cleavage does the source give for U25A U41A U51A A56U A57G U60C here?
**A.** Its self-cleavage is 0.1.

**Q.** Which self-cleavage does the source give for U25A U41A U80A here?
**A.** The self-cleavage was 0.22.

**Q.** With U25A U41C U49C A64U U69A as the variant, how does the self-cleavage read?
**A.** Its self-cleavage is 0.06.

**Q.** For U25A U41G C44A, which self-cleavage is on record?
**A.** Its self-cleavage is 0.26.
